Among all 52,000 compounds or so, about 4,300 (8.3%) were called active. Cut-off read from the data, not from the text of the source: active = survival mostly below about 52% (no sharp cut-off); inactive = mostly above about 56%. This is one part of the list.
These compounds were tested on DeltatarO mutant (assay: S. aureus survival, RN4220 and DeltatarO strains – OD600, teichoic acid synthesis inhibitors, primary screen (AID 463173)). Settings: S. aureus RN4220 wild type/DeltatarO growth, OD600, 18 h, stronger effect = lower value, screened at 18.75 µg/mL (by protocol).

SMILES	survival
COc1ccccc1NC(=O)CSC1=Nc2ccccc2C2=NC(CCC(=O)NCCc3ccccc3)C(=O)N12 (centres undefined)	inactive: 102%
CCOC(=O)c1c(C)oc2ncnc(Nc3ccc(OC)cc3OC)c12	inactive: 97%
CC(C)c1ccc(NC(=O)c2ccc3c(c2)CCN3S(=O)(=O)c2ccccc2)cc1	active: 44%
Cc1cc2ncn(S(=O)(=O)N3CCOCC3)c2cc1C	inactive: 71%
O=C(Nc1nnc(S(=O)(=O)N2CCCc3ccccc32)s1)c1ccccc1Cl	active: 28%
CCN(CC)c1nc2n(c(=S)n1)CCS2	inactive: 103%
COc1ccccc1N1CCN(C(=O)c2cn(CC(C)C)c(=O)c3c2c2ccccc2n3C)CC1	inactive: 85%
O=C(Nc1ccc(O)c(-c2nc3ccccc3o2)c1)c1sc2ccccc2c1Cl	inactive: 105%
CCCC(=O)c1cc2c(cc1N)OCCO2	inactive: 95%
CCCOc1ccc(NC(=O)CC2C(=O)N(c3cccc(OC)c3)C(=O)N2Cc2cccs2)cc1 (centres undefined)	inactive: 95%
O=C(CSCc1cnn(-c2ccccc2)c1-n1cccc1)NCc1ccc(Cl)cc1	inactive: 79%
O=C(NC1CCCCC1NC(=O)c1ccco1)c1ccco1 (centres undefined)	inactive: 98%
Cc1cccc(C2C=C(c3ccc(C)c(C)c3)Nc3nnnn32)c1 (centres undefined)	active: 6%
Cc1nc2ccn(Cc3ccccc3)c(=O)c2cc1C(=O)N1CCN(c2ccccc2F)CC1	inactive: 85%
CCOc1ccccc1C(=O)NC1(C(F)(F)F)NC(=O)N(CCc2ccc(OC)c(OC)c2)C1=O (centres undefined)	inactive: 54%
COc1cc(OC)cc(-c2cc3nc(C)c(CCC(=O)NCc4ccccc4)c(C)n3n2)c1	inactive: 95%
COc1cccc(-c2cc(C(=O)N3CCN(c4ccccc4OC)CC3)no2)c1	active: -4%
COc1ccc(Cl)cc1NC(=O)Cc1coc2c(C)c(C)ccc12	inactive: 89%
CCc1ccc(NC(=O)c2sc3nc4c(cc3c2N)CN(CC)CC4)cc1	active: 49%
Cc1cc(C)c(NC(=O)CNC2CC(C)(C)NC(C)(C)C2)c(C)c1	inactive: 91%

SMILES	survival
O=C(CN1CCN(C(=O)N2CCCCC2)CC1)Nc1ccc(F)cc1	inactive: 70%
O=C(CSc1nnc(CNc2ccc(F)cc2)o1)N1CCOCC1	inactive: 119%
O=C(Nc1ccc(F)cc1)c1ccc(Cn2nc(N3CCN(c4ccccc4)CC3)ccc2=O)o1	inactive: 82%
COC(=O)c1ccc(NC(=O)CCc2c(C)nn(-c3ccc(N4CCOCC4)nn3)c2C)cc1	inactive: 78%
COc1ccc(CCNc2nc(-c3ccc(Cl)cc3)cc(C(F)(F)F)n2)cc1OC	active: 8%
CCOC(=O)c1c(C)[nH]c(C)c1S(=O)(=O)N1CCC(C(=O)N2CCN(c3cccc(C)c3C)CC2)CC1	inactive: 94%
CCc1cccc(NC(=O)Cn2c(=O)c(C(F)(F)F)nc3ccccc32)c1	inactive: 85%
Cc1coc2cc3oc(=O)c(CC(=O)N4CCCCC4)c(C)c3cc12	inactive: 85%
Cc1cccc(NC(=O)CN2C(=O)CSC2=O)c1	inactive: 98%
Cc1cccc(CSc2nc3cc(C(=O)NC4CCCC4)ccc3c(=O)n2Cc2ccccc2)c1	inactive: 69%
CCCN(CCC)CC(O)Cn1cc(/C=C/C(=O)c2ccc(OC)cc2)c2ccccc21 (centres undefined)	active: 11%
Cc1cc(C)c2c(=O)cc(C(=O)Nc3nc4ccc(F)cc4s3)oc2c1	inactive: 61%
Cc1cc(=O)oc2cc3c(cc12)OCCN3	inactive: 69%
CCC(CC)C(=O)Nc1c(C(=O)N2CCN(c3ccccc3)CC2)oc2ccccc12	inactive: 97%
Cc1cc2ncn(CCC(=O)NC(C)(C)C)c2cc1C	inactive: 95%
O=C(CN(c1ccc2c(c1)OCCO2)S(=O)(=O)c1ccccc1)N1CCCCCC1	inactive: 73%
CC1CCN(c2nc3c(-c4cccc(Br)c4)nnn3c3ccccc23)CC1	inactive: 104%
COc1ccc(OCCn2nnc3sc4c(c3c2=O)CCC(C(C)(C)C)C4)cc1 (centres undefined)	inactive: 107%
CCOc1ccc(-c2c(C)nn3c(C)c(C(=O)NCc4ccc(Cl)cc4)cnc23)cc1OCC	inactive: 119%
O=C(CCN1CCc2ccccc2C1)Nc1ccc(F)c(F)c1	inactive: 102%

SMILES	survival
CCC(NC(=O)Nc1cc(Cl)ccc1OC)c1c(-n2cccc2)sc2c1CCN(C)C2 (centres undefined)	inactive: 84%
CCCCCn1c(=O)[nH]c2cc(C(=O)NCCN(C)CCCC)ccc2c1=O	inactive: 66%
CCCCNC(=O)c1cccc(-n2cnc3cccnc32)c1C	inactive: 83%
O=C(c1cccc(F)c1)c1ccc2c(c1)CCCO2	inactive: 85%
CC1CCCCN1C(=O)c1ccc2c(c1)N(Cc1cccc(Cl)c1)C(=O)c1ccccc1S2=O (centres undefined)	inactive: 103%
Cc1cc(N(C)Cc2ccccc2)n2nc(-c3ccc(C(C)(C)C)cc3)nc2n1	active: 39%
CN1C(=O)SC(CC(=O)O)C1=O (centres undefined)	inactive: 89%
O=C(OCc1ccco1)c1ccc2c(c1)N(Cc1cccc(F)c1)C(=O)c1ccccc1S2	inactive: 93%
COc1ccc(Br)c(C(=O)Nc2cc3c(cc2N2CCCC2)n(C)c(=O)c(=O)n3C)c1	inactive: 94%
Cc1ccc(-c2cc(C(=O)OCC(=O)c3ccccc3)c3cccc(Cl)c3n2)cc1	inactive: 67%
CCOc1ccccc1NC(=O)CC(c1ccc(F)cc1)N1Cc2ccccc2C1=O (centres undefined)	inactive: 99%
N=c1n(CCO)c2ccccc2n1Cc1ccccc1F	active: 47%
COc1ccc(CCNC(=O)c2cc(=O)c3cc(C)cc(C)c3o2)cc1OC	inactive: 57%
COc1ccc(-c2nc(SCC(=O)c3ccc(Br)cc3)n[nH]2)cc1	inactive: 194%
Cc1c(CNC2CCC(C)CC2)c(C(=O)O)c(C)n1Cc1ccccc1F (centres undefined)	inactive: 83%
CCC1CN(C(=O)Nc2ccccc2C(F)(F)F)c2ccccc2O1 (centres undefined)	inactive: 60%
CCOc1ccccc1C1C(C(N)=O)=C(C)Nc2nc(-c3ccccc3Cl)nn21 (centres undefined)	inactive: 138%
CCN1C(=O)C2(C(C#N)=C(N)SC(N)=C2C#N)c2ccccc21	active: 2%
Cc1cccc(N2CC(c3nc4ccc(C)cc4[nH]3)CC2=O)c1 (centres undefined)	inactive: 98%
